{
  "source": "the supplement of paper PMC9446081",
  "note": "About 220 (0.56%) of roughly 39,000 compounds showed activity. This is one part of the list.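 Also: static incubation at 37 °C against the wild-type strain, values averaged over two biological replicates.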",
  "data": [
    {"test_system": "Escherichia coli K-12 BW25113", "assay": "relative growth (OD600 normalised to plate interquartile mean) (fraction); higher = less growth inhibition, active = 0.2 or less", "conditions": "50 µM; LB; incubation time: overnight (16-24 h)", "values": [
      {"smiles": "C[C@H]1CN([C@@H](C)CO)C(=O)c2cc(C#CCN(C)C)cnc2O[C@@H]1CN(C)C(=O)c1cnccn1", "relative growth": "inactive: 1"},
      {"smiles": "COc1ccc(NC(=O)Nc2cccc3c2O[C@@H](CN(C)Cc2ccc(Oc4ccccc4)cc2)[C@@H](C)CN([C@H](C)CO)C3=O)cc1", "relative growth": "inactive: 0.972"},
      {"smiles": "COc1ccc(NC(=O)Nc2ccc3c(c2)C(=O)N([C@@H](C)CO)C[C@H](C)[C@@H](CN(C)C(=O)Nc2ccc(OC)cc2)OCCCC[C@H](C)O3)cc1", "relative growth": "inactive: 1.02"},
      {"smiles": "C[C@@H]1CN([C@@H](C)CO)C(=O)c2cc(NC(=O)CCCCCC(=O)Nc3ccccc3N)ccc2O[C@@H](C)CCCCO[C@@H]1CN(C)C(=O)Nc1ccc(C(F)(F)F)cc1", "relative growth": "inactive: 1.01"},
      {"smiles": "O=C(O)c1cn(C2CC2)c2cc(N3CCNCC3)c(F)cc2c1=O", "relative growth": "active: 0.0478"},
      {"smiles": "O=C(C[C@H]1C[C@H]2c3cc(NS(=O)(=O)c4ccccc4)ccc3O[C@H]2[C@@H](CO)O1)NCC(F)(F)F", "relative growth": "inactive: 1.03"},
      {"smiles": "O=C(NCCCN1CCOCC1)[C@@H]1[C@@H](CO)[C@@H]2Cn3c(cccc3=O)[C@H]1N2C(=O)NC1CCCC1", "relative growth": "inactive: 1.01"},
      {"smiles": "CC(=O)c1cc(S(=O)(=O)c2ccc(C)cc2)c(CC[C@H](COC(=O)NCCCCCC(=O)NO)NC(=O)Nc2nnc[nH]2)o1", "relative growth": "inactive: 1.02"},
      {"smiles": "Cc1ccc(S(=O)(=O)Nc2ccc3c(c2)C(=O)N([C@@H](C)CO)C[C@@H](C)[C@@H](CN(C)C(=O)Nc2ccc(C(F)(F)F)cc2)O3)cc1", "relative growth": "inactive: 1.01"},
      {"smiles": "CNC[C@@H]1OCCCC[C@H](C)Oc2ccc(NS(=O)(=O)c3c(C)noc3C)cc2C(=O)N([C@H](C)CO)C[C@@H]1C", "relative growth": "inactive: 1"},
      {"smiles": "CCS(=O)(=O)C1CNC1", "relative growth": "inactive: 1.03"},
      {"smiles": "CC(C)NC(=O)Nc1ccc2c(c1)C(=O)N([C@@H](C)CO)C[C@H](C)[C@@H](CN(C)S(=O)(=O)c1ccc(F)cc1)O2", "relative growth": "inactive: 0.972"},
      {"smiles": "O=C(C[C@H]1CC[C@@H]2[C@H](COC[C@H](O)CN2Cc2cc(F)ccc2F)O1)N[C@H]1CCN(Cc2ccccc2)C1", "relative growth": "inactive: 0.977"},
      {"smiles": "COc1cccc(C(=O)Nc2ccc3c(c2)C(=O)N(C)[C@@H]2CC[C@@H](CC(=O)NCC4CC4)O[C@@H]2CO3)c1", "relative growth": "inactive: 1.02"},
      {"smiles": "CCS(=O)(=O)N1CC[C@]2(CC1)CN([C@H](CO)c1[nH]c3cc(ccc3c12)OC)C(=O)Nc1c(noc1C)C", "relative growth": "inactive: 0.978"},
      {"smiles": "C[C@H]1CN([C@@H](C)CO)C(=O)Cc2cc(NC(=O)Cc3cn(C)c4ccccc34)ccc2O[C@@H]1CN(C)S(C)(=O)=O", "relative growth": "inactive: 1.02"},
      {"smiles": "CN(C)CCN1CCN(C)C2(CCN(C(=O)[C@H]3CCCO3)CC2)C1=O", "relative growth": "inactive: 1"},
      {"smiles": "C[C@H](CO)N1C[C@H](C)[C@@H](CN(C)S(=O)(=O)c2ccc(Cl)cc2)OCCCC[C@H](C)Oc2ccc(NS(=O)(=O)c3ccc(Cl)cc3)cc2C1=O", "relative growth": "inactive: 1.05"},
      {"smiles": "C[C@H]1CN([C@@H](C)CO)C(=O)c2cccc(NC(=O)Nc3cccc4ccccc34)c2O[C@@H]1CN(C)C(=O)Nc1ccc(C(F)(F)F)cc1", "relative growth": "inactive: 0.854"},
      {"smiles": "C[C@@H]1CN([C@@H](C)CO)C(=O)c2cc(NC(=O)CCC(F)(F)F)ccc2O[C@@H]1CN(C)Cc1ccc(Oc2ccccc2)cc1", "relative growth": "inactive: 1"},
      {"smiles": "C=CCN1C(=O)[C@@]2(O[C@@H](CCO)[C@H]([Si](C)(C)c3ccc(OC)cc3)[C@H]2C)c2cc(N3C(=O)c4cccc5cccc3c45)ccc21", "relative growth": "inactive: 1.06"},
      {"smiles": "COc1ccc(C#Cc2ccc3c(c2)[C@]2(C(=O)N3)[C@H](c3ccccc3OCCO)N3[C@H](c4ccccc4)[C@H](c4ccccc4)OC(=O)[C@H]3[C@@H]2C(=O)O)cc1", "relative growth": "inactive: 0.992"},
      {"smiles": "COc1ccc(S(=O)(=O)N(C)C[C@@H]2Oc3c(NC(=O)c4cc(C)nn4C)cccc3C(=O)N([C@H](C)CO)C[C@@H]2C)cc1", "relative growth": "inactive: 0.994"},
      {"smiles": "CN1CCN(C(=O)C[C@H]2CC[C@H]3[C@@H](COC[C@H](O)CN3C(=O)C3CC3)O2)CC1", "relative growth": "inactive: 0.924"},
      {"smiles": "C[C@H](CO)N1C[C@H](C)[C@@H](CN(C)Cc2ccc(Oc3ccccc3)cc2)Oc2ccc(NC(=O)c3ccncc3)cc2C1=O", "relative growth": "inactive: 0.976"},
      {"smiles": "C[C@H](O)C#Cc1cnc2c(c1)C(=O)N([C@@H](C)CO)C[C@H](C)[C@@H](CN(C)Cc1cncnc1)O2", "relative growth": "inactive: 0.997"},
      {"smiles": "C[C@H](CO)N1C[C@H](C)[C@H](CN(C)C(=O)Nc2ccc(C(F)(F)F)cc2)OCCCC[C@H](C)Oc2ccc(NC(=O)Nc3cccc4ccccc34)cc2C1=O", "relative growth": "inactive: 1.02"},
      {"smiles": "C[C@H](CO)N1C[C@H](C)[C@H](CN(C)S(=O)(=O)c2ccc(F)cc2)Oc2ncc(-c3cccc(C(=O)N(C)C)c3)cc2C1=O", "relative growth": "inactive: 0.967"},
      {"smiles": "C[C@H]1CN([C@@H](C)CO)C(=O)c2cccc(NS(=O)(=O)c3ccccc3)c2O[C@H]1CN(C)S(C)(=O)=O", "relative growth": "inactive: 0.967"},
      {"smiles": "COC(=O)C1=CO[C@@H](O[C@@H]2O[C@H](CO)[C@@H](O)[C@H](O)[C@H]2O)[C@@H]2[C@@H](C)[C@@H](O)C[C@H]12", "relative growth": "inactive: 0.98"},
      {"smiles": "CCc1nc(N)nc(N)c1-c1ccc(Cl)cc1", "relative growth": "inactive: 0.784"},
      {"smiles": "Cc1noc(C)c1NC(=O)Nc1ccc2c(c1)C(=O)N([C@H](C)CO)C[C@@H](C)[C@H](CN(C)Cc1ccc(C(=O)Nc3ccccc3N)cc1)O2", "relative growth": "inactive: 0.941"},
      {"smiles": "C[C@H]1CCCCO[C@H](CN(C)C(=O)Nc2ccccc2)[C@@H](C)CN([C@@H](C)CO)C(=O)c2cc(NC(=O)c3ccccc3)ccc2O1", "relative growth": "inactive: 1.03"},
      {"smiles": "C[C@H](CO)N1C[C@H](C)[C@@H](CN(C)S(=O)(=O)c2ccccc2)Oc2ccc(NS(=O)(=O)c3ccc(F)cc3)cc2C1=O", "relative growth": "inactive: 1"},
      {"smiles": "Nc1cc(Cl)ncn1", "relative growth": "inactive: 0.995"},
      {"smiles": "C[C@@H]1CCCCO[C@@H](CN(C)Cc2ccc(C(F)(F)F)cc2)[C@H](C)CN([C@@H](C)CO)C(=O)c2cc(NS(=O)(=O)c3ccc(Cl)cc3)ccc2O1", "relative growth": "inactive: 0.999"},
      {"smiles": "O=C(C[C@@H]1CC[C@@H]2[C@H](COC[C@@H](O)CN2S(=O)(=O)c2ccccc2)O1)N1CCc2ccccc2C1", "relative growth": "inactive: 0.979"}
    ]}
  ]
}
